The list shows a part of the results.
Test system: PF3D7_0420300 AP2 domain 1 (GST-tagged)
Experiment: gcPBM binding intensity (ln(normalized median fluorescence intensity)); higher = stronger DNA binding
In short: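 Binding of GST-tagged P. falciparum DNA-binding domains, expressed in E. coli and used at about 25 μg on average, was carried out for 1 h in 1× PBS containing 1% milk, 0.2 mg/ml BSA, 0.5% salmon testes DNA and 0.03% Triton X-100. The target was an Agilent 4 × 180k array of primer-extended double-stranded 36-bp intergenic genomic probes plus negative controls, read with Alexa488 anti-GST antibody at 488 nm. Binding intensity is the highest Masliner-normalised natural-log median intensity across replicate spots of either probe orientation.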

| Sequence | gcPBM binding intensity (ln) |
| --- | --- |
| CGTATTTATATAATTACACACCATATTTTAATTATT [CACACA_site5960] | 9.3 |
| TAATTTTTTTTTCTTGTACACACTATTTTATAATTT [CACACA_site4078] | 9.59 |
| ATCTATGATATATACACACACATGTATAAATAAATA [CACACA_site7012] | 9.57 |
| AATAGTATTCACAAAGTTTTATATAATAAATATAAA [GTGCAC_negctrl_site154] | 8.92 |
| TTTGAAATAAGCAAATGTACATTATTATTAAATATA [XGTACX_site6158] | 8.97 |
| TTGCCCATTTAATTAACACACAAATGTTTATATTCT [CACACA_site6488] | 9.57 |
| TGTATGATAACTATAGTGCATTTGGTAATTTTTCCA | 9.25 |
| TTCACATACAGAAACACACACATATATATAAATTAA [CACACA_site3705] | 9.78 |
| TATTTCATGATACAATGTACATGTATATATGATACC [XGTACX_site5057] | 9.18 |
| AATAATATATATTACACACGCATCGTTCATTTATTT [CACACA_site2391] | 9.74 |
| CTAGCAAATACATACACACACACACCGATACAGATA [CACACA_site5853] | 10.2 |
| ATATATACATATATTACACACTTCTTATTCTAAGAA [CACACA_site3022] | 9.22 |
| TATAATATAAGGATCACACACAAACACCCATATATA [CACACA_site4468] | 9.76 |
| TCCATAAAAATGGATACACACACATAATATATATAT [CACACA_site9207] | 9.82 |
| CATACATACATACATACACACATACCTATATTTATA [CACACA_site6769] | 9.79 |
| TATATAAAAAAACAAAGTACATGTTCTTAATCATTT [XGTACX_site8446] | 9.15 |
| AAATGAACAAGTGGCACACACACATCATAACTAATT [CACACA_site5730] | 9.92 |
| CACGCGAACATACATACACACACATATATATATATG [CACACA_site7951] | 9.85 |
| CAAAATATATATACCACACACACATACCTCTATTTG [CACACA_site1853] | 9.93 |
| ATATATTTTTTCTTAACACACATATATAAAATAAAA [CACACA_site3500] | 9.24 |

| Sequence | gcPBM binding intensity (ln) |
| --- | --- |
| TATATATATATATACACACACACACCGATATATATA [CACACA_site8813] | 10.2 |
| AAATATAATATATGCACACATACATACAGATATATA [CACACA_site4235] | 9.5 |
| ATAAATATAGGACACACACACATATTATATATATAT [CACACA_site5658] | 10.1 |
| ATAATATAAATATGCACACAAATTATTACCCAAAAA [CACACA_site2524] | 9.55 |
| GTTATATTCCTACAGAGTACATAAAAATGCACATCA [XGTACX_site1948] | 9.2 |
| TATTCGAACAAAAATACATGCACATATGCATAATAA [TGCATGCA_site171] | 9.15 |
| TTTTCCAGTAAATATTTTTTTATAATATTTATATAT [CACACA_negctrl_site387] | 9.11 |
| AAATAAAATAAAATACGTACCTATTGTGCGTATTAA [XGTACX_site2912] | 9.06 |
| TAATAAATGTTATTAGTGCATAATAGATAATATATT | 9.24 |
| AATAATTTCCAAAAATGTACATATATTTACATATAT [XGTACX_site1790] | 9.4 |
| ATTTTAACTCCCCTTAATCTATTGTATATATATATA [CACACA_negctrl_site208] | 9.39 |
| AGCCACTTAAAATACACACACACCAAAAAAAAAAAA [CACACA_site5497] | 9.81 |
| TATTTTATTTATTGAAGTACATTATACAAAAATAAA [XGTACX_site4824] | 8.8 |
| GTTTTCTAGTGGGGGTGTACATATTTATATTTAATA [XGTACX_site8378] | 10.2 |
| ATATATATATAATAAGTGCAAAAAAAAGAAAAAAAT | 9.74 |
| AGCAAAAAAAAAAAAAAAAAAAAAATAATAAAAAAT [TGCATGCA_negctrl_site202] | 8.83 |
| CATATATTAATATGTACACACATTAATAAAAAAAAA [CACACA_site7504] | 9.4 |
| TTTTTTTTTTTTGAGGTGCATATATCAGATCAATAT | 8.94 |
| AGTATTCATAAAAATACACACATGGAAAAATAAAAT [CACACA_site1454] | 9.72 |
| TAAGAAATTGAGCGCACACATACATCTGTGGGATGG [CACACA_site1548] | 9.46 |

| Sequence | gcPBM binding intensity (ln) |
| --- | --- |
| ATTGTGGATATTCTTACACACAAATTTATTTATAAA [CACACA_site7267] | 9.28 |
| TTTTTTTCTTCTTTTCTCTTAAAAATATTGAATATT [CACACA_negctrl_site1762] | 9.12 |
| ATGTAAATATTTTGTATGCACTTTGATGCATCTTTT | 9.34 |
| AAAAAAAAAAAAAAAAAAAAAAAAAAAAAAAAAAAG [CACACA_negctrl_site292] | 9.3 |
| TCAAGAGTTATATAAACACACATACATACAGACATA [CACACA_site6998] | 9.6 |
| GGAAAAAGAAATTAATGTACATGTGGATGTATGAGG [XGTACX_site5468] | 9.36 |
| AAAATATTTAAGCATTGTACATATTTTTACAAATAC [XGTACX_site5349] | 9.1 |
| AAAATTCATCCAACAAGTACATAAATATAATATTAT [XGTACX_site4596] | 9.35 |
| AAGAACAGATAAAATCGTACGTGAAACATGAACTTG [XGTACX_site7793] | 9.42 |
| TCTGAAATTTTAGGGGTGCCTGGGACTAAAGAAACG [GTGCAC_site9785] | 9.19 |
| TAGAAACCATAAAAATGTACTTAAAAATAGACAATT [XGTACX_site5007] | 9.37 |
| ATAAATTCATTATATTGTACAAACAAATGAAAAAAA [XGTACX_site8304] | 9.09 |
| TTTAATTCCCATATATGTACACAATTTCTTCTATAA [XGTACX_site1465] | 9.25 |
| AGACTTTTTATGAGCACACACATATATTATGGAGTA [CACACA_site1040] | 9.41 |
| ATACATAAATATTATTGTACATATATAATATTAATA [XGTACX_site3514] | 9.08 |
| ATTTTTTTTTTTTTATGTACATATTAAAAAAAATAT [XGTACX_site1829] | 9.03 |
| GGTATTACTTTTAGCTGTACTTATTTAAAAGTCAAA [XGTACX_site530] | 9.13 |
| ATTTTTACTTTTTATGCATGCTATATTTTCAACCAT [TGCATGCA_site871] | 9.5 |

Reference: the supplement of paper PMC11417369
